# Measurements from patent US20250333487A1 (CYTOMX THERAPEUTICS, published 2025).
# T1: BC2T peptide (leader sequence + BC2T MM), coated on the ELISA plate
# T1 peptide: QGQSGQPDRKAAVSHWQQ
# Assays:
# [1] = biological target: T1, BC2T peptide (leader sequence + BC2T …); test: ELISA
# [2] = biological target: T1, BC2T peptide (leader sequence + BC2T …); test: ELISA; uPA-treated
Binder,EC50 [1] [µM],EC50 [2] [µM]
"ProC1283 (HC697), Fc-tagged single-domain antibody with no MM attached (Nanobody-IgG1) (Fc fusion, also called unmasked control protein; positive control) QVQLVESGGGLVQPGGSLTLSCTASGFTLDHYDIGWFRQAPGKEREGVSCINNSDDDTYYADSVKGRFTIFMNNAKDTVYLQMNSLKPEDTAIYYCAEARGCKRGRYEYDFWGQGTQVTVSSGGGG[no letters for human IgG1 Fc]",0.000642,
product of ProC1284 and uPA (ProC1284+uPA) (Fc fusion) GGGSQVQLVESGGGLVQPGGSLTLSCTASGFTLDHYDIGWFRQAPGKEREGVSCINNSDDDTYYADSVKGRFTIFMNNAKDTVYLQMNSLKPEDTAIYYCAEARGCKRGRYEYDFWGQGTQVTVSSGGGG[no letters for human IgG1 Fc],,0.000854
"product of ProC1285 and uPA (ProC1285+uPA) (Fc fusion, engineered Cys (Q157C) disulfide-bonded to Cys 3 of the mask fragment; Cys 3 of the leader disulfide-bonded to the engineered Cys (Q157C) of the Nb chain) chain 1: QGCSGQPDRKAAVSHWQQGGGSSGGS chain 2: GGGSQVQLVESGGGLVQPGGSLTLSCTASGFTLDHYDIGWFRQAPGKEREGVSCINNSDDDTYYADSVKGRFTIFMNNAKDTVYLQMNSLKPEDTAIYYCAEARGCKRGRYEYDFWGCGTQVTVSSGGGG[no letters for human IgG1 Fc]",,10.8
"ProC1284 (HC698), single-anchored BC2T-Nb-IgG1 (BC2 tag-1490DNI-Nanobody-IgG1), intact (Fc fusion) QGQSGQPDRKAAVSHWQQGGGSSGGSISSGLLSGRSDNIGGGSQVQLVESGGGLVQPGGSLTLSCTASGFTLDHYDIGWFRQAPGKEREGVSCINNSDDDTYYADSVKGRFTIFMNNAKDTVYLQMNSLKPEDTAIYYCAEARGCKRGRYEYDFWGQGTQVTVSSGGGG[no letters for human IgG1 Fc]",6.18,
